Test results: the BET-seq Pho4 binding data (Le et al. 2018)
Some of the results follow. These are noisy estimates, calculated here from bound and input reads.

molecular target: T1, Pho4 (S. cerevisiae) (UniProt P07270); test: relative binding free energy (BET-seq); higher = weaker binding; conditions: reference: library average
T1 sequence: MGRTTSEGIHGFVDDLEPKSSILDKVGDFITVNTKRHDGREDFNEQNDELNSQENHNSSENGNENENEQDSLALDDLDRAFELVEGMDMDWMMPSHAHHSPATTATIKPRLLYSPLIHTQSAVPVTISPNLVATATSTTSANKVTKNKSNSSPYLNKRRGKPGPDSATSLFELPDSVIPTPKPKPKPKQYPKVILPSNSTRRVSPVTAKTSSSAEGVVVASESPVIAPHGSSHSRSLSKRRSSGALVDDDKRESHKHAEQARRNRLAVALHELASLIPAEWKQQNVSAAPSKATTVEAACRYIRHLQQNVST

Row | Sequence | relative binding free energy [kcal/mol]
1 | GGCAACACGTGAGGTT | 0.27
2 | TGTGCCACGTGGTGGC | -0.06
3 | TACAACACGTGGTTGT | 0.1
4 | TTACTCACGTGGGTAG | 0.07
5 | ACGTGCACGTGATAGT | 0.08
6 | TTCTGCACGTGGATTA | -0.03
7 | ATTGTCACGTGCATGT | 0.07
8 | TCTTGCACGTGGATTG | 0.02
9 | GTAATCACGTGGGGCT | 0.04
10 | TTACGCACGTGGGCGG | -0.26
11 | AAAGGCACGTGTAGCG | 0.09
12 | ATGTGCACGTGACTTT | 0.02
13 | TATAGCACGTGTGGGG | 0.01
14 | GTCGACACGTGTTTTA | 0.22
15 | CATGTCACGTGCTTTG | 0.14
16 | CGTTGCACGTGGATTG | -0.1
17 | GTCTTCACGTGGAGCG | 0.34
18 | TGGTCCACGTGGTATA | -0.01
19 | TTTGACACGTGGTAGC | -0.11
20 | GCTTGCACGTGGGTGG | -0.12
21 | TTATGCACGTGCCTGG | -0.21
22 | AGAAGCACGTGAGTGG | 0.19
23 | CGTTCCACGTGGTCGG | 0.1

Row | Sequence | relative binding free energy [kcal/mol]
24 | TTGTCCACGTGGGAAG | 0.07
25 | TCAGTCACGTGGGAAT | 0.13
26 | GTAAACACGTGAGGCT | 0.39
27 | AGCTTCACGTGATGTG | 0.34
28 | GAGGGCACGTGCTTGG | 0
29 | CTTTGCACGTGAAAGG | 0.26
30 | TGAGTCACGTGATGGC | 0.18
31 | GTCGACACGTGTGAGT | 0.02
32 | TGTTCCACGTGTTAAA | 0.22
33 | TGGGCCACGTGGAGTG | -0.09
34 | CTAGTCACGTGGTTGA | 0.02
35 | GGGGTCACGTGTCGTG | 0.31
36 | TCAATCACGTGGTTTA | 0.09
37 | TATGGCACGTGGATTA | -0.08
38 | GTGTTCACGTGAACGG | 0.35
39 | ATCTTCACGTGTGCGG | 0.19
40 | TATAGCACGTGTGGAA | 0
41 | GAATTCACGTGTGGAT | 0.23
42 | TGGTACACGTGTCTGC | 0.1
43 | CTGAACACGTGGAGGG | -0.12
44 | TATCTCACGTGGTTTT | 0.12
45 | GCAGGCACGTGCTGGG | -0.12
46 | AGGAACACGTGGATGG | 0.09

Row | Sequence | relative binding free energy [kcal/mol]
47 | AGGAGCACGTGCGGTA | -0.23
48 | CGAAGCACGTGGTATG | -0.12
49 | TCGTACACGTGATGTT | 0.29
50 | AAAGGCACGTGATTTT | -0.04
51 | CGGGGCACGTGAGATA | 0.15
52 | AGGAACACGTGTTGTG | 0.04
53 | TGTGTCACGTGCGGAG | 0.02
54 | CTGGGCACGTGGCGGT | -0.24
55 | ATATACACGTGGTATG | -0.07
56 | TAGGTCACGTGTCTTG | 0.08
57 | AGTTGCACGTGTCTTT | -0.11
58 | CAGTACACGTGTGTTT | 0.22
59 | AGAGTCACGTGGAGGC | 0.09
60 | TCTGTCACGTGACGTG | 0.26
61 | GGGATCACGTGGTCGT | 0.18
62 | TGGATCACGTGCTGTC | 0.33
63 | ATAGGCACGTGAGTAG | 0.09
64 | CGCGTCACGTGTTATT | 0.19
65 | TTTTGCACGTGTTCAA | 0.15
66 | GTTGGCACGTGCCAGG | -0.19
67 | TTCTTCACGTGGTCGG | 0.13
68 | TCGGGCACGTGGAAGT | -0.04
69 | AAGCGCACGTGGAGCG | 0.02

Row | Sequence | relative binding free energy [kcal/mol]
70 | CGGTGCACGTGTTGCG | -0.15
71 | GTAAACACGTGTCGTG | 0
72 | TATTACACGTGGCGGA | -0.01
73 | TAAATCACGTGGTTAT | 0.09
74 | TTGCGCACGTGAGGTA | 0.2
75 | CTAGTCACGTGGTATG | -0.08
76 | AAATGCACGTGTGTCG | -0.07
77 | CTTAGCACGTGGTTGA | -0.14
78 | ATTGTCACGTGTCTTG | 0.11
79 | AATGGCACGTGTCTTT | -0.14
80 | TGGCGCACGTGGTTAT | -0.2
81 | GTGTCCACGTGGTTGG | 0
82 | CTGGTCACGTGTGGAG | 0.04
83 | TTAATCACGTGTTGCA | -0.02
84 | AGGTTCACGTGTCTGT | 0.29
85 | ATGCTCACGTGAAGGG | 0.36
86 | GGTTACACGTGTATTT | 0.12
87 | GTTATCACGTGTATTC | 0.27
88 | GTGAGCACGTGGAGGT | -0.08
89 | TAAATCACGTGAGTGA | 0.23
90 | AAGGACACGTGGTTTG | 0
91 | CTTGTCACGTGCTTGG | -0.09
92 | GGCGGCACGTGCGGGC | -0.16

Row | Sequence | relative binding free energy [kcal/mol]
93 | CGGGACACGTGGTGTT | -0.04
94 | CATAACACGTGTTGTT | -0.1
95 | TTATTCACGTGAAGTT | 0.45
96 | TGCAACACGTGCGTGG | -0.1
97 | TTTAGCACGTGTTTGC | 0.02
98 | TCTGGCACGTGTGTGT | -0.07
99 | GTTTGCACGTGTCTAG | 0.06
100 | TCAGTCACGTGAACGG | 0.41
101 | TCGTCCACGTGAGTGG | 0.16
102 | GATGTCACGTGAATTT | 0.37
103 | CTTTGCACGTGCGGGT | -0.06
104 | TGGGGCACGTGGTATT | -0.14
105 | TTGTACACGTGCCGGT | -0.14
106 | CTTAGCACGTGTGTTT | 0.05
107 | GTAGTCACGTGTAATT | 0.29
108 | GGTAACACGTGTTTTC | 0.12
109 | TTTCACACGTGTTGTA | 0.19
110 | TATCGCACGTGAGGAG | 0.38
111 | GGCTACACGTGAGGGT | 0.35
112 | TGTGTCACGTGTCTTC | 0.18
113 | GGTCGCACGTGTCTGG | 0.06
114 | TTGGGCACGTGTATAC | -0.15
115 | ATCGGCACGTGAGGCG | 0.09
